# From PubChem BioAssay AID1240 (Sanford-Burnham Center for Chemical Genomics, 2008)
# The campaign covered roughly 50,000 compounds. About 800 (1.6%) showed an effect of 50% or more. The list shows a part of the results.
# Target: Bcl-2-like protein 10 (Homo sapiens) (UniProt Q9HD36)
# Experiment: Phenotype converters, Bcl-B/TR3 peptide binding displacement, primary biochemical FP (AID 1240);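 also: 0% = Bcl-B with tracer peptide and DMSO and 100% = tracer peptide lacking Bcl-B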
# Details: GST-Bcl-B / FITC-TR3 peptide fluorescence polarization; stronger effect = higher value; compound at 3.75 mg/L
# Chain of UniProt Q9HD36 (Q9HD36 whole entry, looked up): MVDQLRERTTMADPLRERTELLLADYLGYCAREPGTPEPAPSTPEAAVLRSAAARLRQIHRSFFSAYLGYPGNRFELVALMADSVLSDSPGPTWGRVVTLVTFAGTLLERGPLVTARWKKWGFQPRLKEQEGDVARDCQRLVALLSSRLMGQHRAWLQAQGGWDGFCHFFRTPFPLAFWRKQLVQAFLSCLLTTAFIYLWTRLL
row,SMILES,displacement [%]
1,CCCSc1nc2ccccc2n1CCO,-1.9
2,c1cnn(-c2cc(NC3CCCCC3)ncn2)c1,-11.6
3,COc1ccc(OC)c(C2/C(=C(\O)c3ccc(Cl)cc3)C(=O)C(=O)N2c2cc(C(C)(C)C)on2)c1 (centres undefined),-9
4,O=C1NC(=O)C(=Cc2ccc(-c3cc(Cl)c([N+](=O)[O-])cc3Cl)o2)C(=O)N1,81.2
5,CCc1ccc(CN2CCN(S(C)(=O)=O)CC2)cc1,9
6,Cc1cc2[nH]c(=O)cc(-c3ccccc3)n2n1,-5.3
7,COc1ccc(C2C3=C(CC(C)(C)CC3=O)NC3=C2C(=O)CC(C)(C)C3)cc1C(=O)O,-5.1
8,N/C(=N\OC(=O)c1ccccc1I)c1cccnc1,2.2
9,N/C(=N\OC(=O)c1ccc(Cl)c([N+](=O)[O-])c1)c1ccccn1,-7.2
10,O=S(=O)(NCc1ccncc1)c1ccc(F)cc1,13.7
11,O=C1CC(Cc2ccc(Cl)cc2)C(=O)N1c1ccc(Cl)c(Cl)c1 (centres undefined),-7.4
12,CCOc1cc(/C=N/n2cnnc2)ccc1OCc1cccc2ccccc12,-2.6
13,CSc1ccc(/C=N/NC(=O)c2cc(-c3ccccc3)n[nH]2)cc1,7.5
14,CCOC(=O)CNC(=O)c1ccc(-c2ccccc2)cc1,-10.9
15,COCCN1C(=O)/C(=C\c2ccc(SC)cc2)C(C(=O)OC)=C1C,-38.9
16,Cc1ccc(C)c(N(CC(N)=O)S(=O)(=O)c2ccccc2)c1,-5.5
17,O=C(N/C(=C/c1ccc([N+](=O)[O-])cc1)c1nc2ccccc2[nH]1)c1ccccc1,15.4
18,Fc1ccc(NC(=S)NCC(c2ccccc2)c2ccccc2)cc1,-10.6
19,N#C/C(=N/Nc1ccccc1F)C(=N)N1CCOCC1,8.4
20,CC(NC(=O)C(NC(=O)OCc1ccccc1)C(C)C)C(=O)OCc1ccc([N+](=O)[O-])cc1 (centres undefined),-18
21,COc1c(Cl)ccc(Cl)c1C(=O)Nc1sc2c(c1C(N)=O)CCCC2,-4.2
22,CSc1nc(C)cc(-n2ccc(=O)[nH]c2=O)n1,2.5
23,Cc1cc(OCC(=O)Nc2ccc(I)cc2Cl)ccc1Cl,42.6

row,SMILES,displacement [%]
1,CCC(C)c1ccc(NC(=O)CCc2ccccc2)cc1 (centres undefined),-7.7
2,CCOc1ccc(Cc2c(C)[nH]c3c(Br)cccc3c2=O)cc1,3.2
3,O=C(Nc1ccc2c(c1)OCO2)c1ccccc1[N+](=O)[O-],-5.9
4,c1ccc(Nc2nc(-c3ccccn3)cs2)nc1,-20.6
5,Cc1ccc(Cl)c(OCCCCN2CCCC2)c1,-4
6,COc1cc([N+](=O)[O-])ccc1NC(=O)COc1ccccc1C(C)(C)C,38.1
7,Cc1ccccc1OCC(=O)N1N=C(c2ccc(F)cc2)CC1(O)C(F)(F)F (centres undefined),-4.5
8,O=[N+]([O-])c1ccc(N2CCN(CCO)CC2)cc1NC(c1ccccc1)c1ccccc1,8.3
9,COc1cc(CN2CCN(Cc3cc(OC)c(OC)c(OC)c3)CC2)cc(OC)c1O,-2.4
10,c1ccc(-n2nnnc2SCc2nn[nH]n2)cc1,6.4
11,O=C(Nc1cccc2ccccc12)c1ccc(CN2CCc3ccccc3C2)cc1,-18.6
12,C=CCc1cccc(/C=N/N2CCN(c3ccc(Cl)cc3)CC2)c1O,-8.1
13,CCCCn1c(=N)n(CC(=O)c2cccs2)c2ccccc21,2.7
14,COc1ccc2c(c1)OCC/C2=N/OC(=O)c1cccc(F)c1,-7.8
15,COc1ccc(-c2cc(C(=O)Nc3ccccc3Br)c3ccccc3n2)cc1,4.7
16,CC1=C(C(=O)Nc2ccccc2)C2(CCCCC2)C(C#N)=C(SCC(=O)Nc2ccc(Br)cc2)N1,-6.8
17,Cc1ccc(N2C(=O)/C(=C/c3cccc(Br)c3)SC2=S)cc1C,14.7
18,O=C(NCc1ccccn1)c1ccc([N+](=O)[O-])cc1,7.9
19,CC(=O)O/N=C(/c1ccc([N+](=O)[O-])cc1)N1CCOCC1,-6.6
20,CCOc1ccc(N2C(=O)CC(N3CCCCC3)C2=O)cc1 (centres undefined),-6.7
21,CC(C)c1ccc(/C=C2\SC(=S)N(Cc3ccccc3)C2=O)cc1,2.6
22,Cc1cc(N2C(=O)NC(=O)/C(=C\c3ccc4c(c3)OCO4)C2=O)ccc1Br,-15.5
23,COc1ccc(Cl)cc1NC(=O)CN(c1ccc(C)cc1)S(=O)(=O)c1ccc(OC)c(OC)c1,12.2

row,SMILES,displacement [%]
1,O=[N+]([O-])c1ccc2nc3c([nH]c4ccccc43)c(N3CCOCC3)c2c1,-5.5
2,COC(=O)C1=C(C)NC(=S)NC1c1ccc(OCC(=O)N2CCCCC2)c(OC)c1 (centres undefined),-7.6
3,O=C(Nc1cc([N+](=O)[O-])ccc1F)c1ccccc1,15.6
4,COc1ccc(C)cc1NC(=O)c1cc(Cl)ccc1OC,8.5
5,COc1cc(NC(=O)c2cc(Cl)c(OC)c(Cl)c2)ccc1NC(=O)c1ccco1,16.5
6,O=C1C(Cl)=C(N2CCOCC2)C(=O)N1c1cccc(Cl)c1Cl,11.1
7,O=C(CCCN1C(=O)c2cccc3cccc(c23)C1=O)N1CCN(Cc2ccc3c(c2)OCO3)CC1,28.8
8,CC(C)Cc1ccc(C(C)C(=O)NC(C)Cc2ccccc2)cc1 (centres undefined),-2.3
9,O=C(CSc1nc2ccc([N+](=O)[O-])cc2s1)NCC1CCCO1 (centres undefined),1
10,CC1=CC(C)(C)N(C(N)=S)c2cc(C)ccc21,-9.7
11,Cc1cc2nc(-c3cc(NC(=O)c4ccco4)ccc3Cl)oc2cc1C,-6.9
12,Cc1cc(-c2ccccc2)nc2cc(C(N)=O)nn12,24.5
13,CC(=O)N/C(=C\c1cccc([N+](=O)[O-])c1)C(=O)NC(C)C,5.9
14,CCCCOc1ccc(NC(=O)c2cncc(Br)c2)cc1,20.5
15,Cc1ccc(S(=O)(=O)Nc2cc(Sc3ncn[nH]3)c(O)c3ccccc23)cc1,19.5
16,Cc1cc(C)n(-c2cc(Oc3ccccc3)nc(-c3ccccc3)n2)n1,0.3
17,O=C(CCc1ccccc1)Nc1cc(C(=O)O)cc(C(=O)O)c1,10.2
18,COC(=O)C1=CN(Cc2ccc(OC)cc2)C=C(C(=O)OC)C1c1ccc2c(c1)OCO2,1.8
19,COc1cc(/C=C2/C(=O)NC(=O)N(c3cccc(F)c3)C2=O)ccc1OCc1ccc(C(=O)O)cc1,-8
20,O=C1CC(SC(=NCc2ccc3c(c2)OCO3)Nc2ccccc2)C(=O)N1c1ccc(Cl)cc1 (centres undefined),-7.6
21,CCOC(=O)c1ccc(N=Cc2ccc(Br)s2)cc1,2.7
22,COc1cc(C(=O)NCc2ccc(C)cc2)c([N+](=O)[O-])cc1OC,13.6
23,COc1nc(-c2ccccc2)c[n+](C)n1,6.3
